# Data: the supplement of paper PMC8728848
# Some of the results follow.
# B1: ASAL (Allium sativum), P83886 (protein)
# chain: MGRTTSSPKAMMRIATVAAILTILASTCMARNVLTNGEGLYAGQSLDVEQYKFIMQDDCNLVLYEYSTPIWASNTGVTGKNGCRAVMQRDGNFVVYDVNGRPVWASNSVRGNGNYILVLQKDRNVVIYGSDIWSTGTYRRSVGGAVVMAMNGTVDGGSVIGPVVVNQNVTAAIRKVGTGAA
# What was measured:
# Assay in all cases: glycan array binding signal (z-score within array); higher = stronger binding
# Details in all cases: glycan notation: IUPAC condensed, linker removed
# [1] = target: Neu5Ac(a2-6)Gal(b1-3)GlcNAc(b1-3)[Gal(b1-4)GlcNAc(b1-6)]Gal(b1-4)Glc
# Summary of the method: (§1)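 Arrays were curated from the Consortium for Functional Glycomics database, 3228 in total, and kept only where the protein sequence was available. Binding is expressed as a within-array Z-score. This score was averaged across arrays of the same protein sequence at different concentrations or buffers and across linkers, and negative values can be read as non-binding.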
# Neu5Ac(a2-6)Gal(b1-4)Glc = target: Neu5Ac(a2-6)Gal(b1-4)Glc
# Summary of the method: as §1
# [2] = target: Neu5Ac(a2-6)Gal(b1-4)GlcNAc
# Summary of the method: as §1
# [3] = target: Neu5Ac(a2-6)Gal(b1-4)GlcNAc(b1-2)Man(a1-3)Man(b1-4)GlcNAc(b1-4)GlcNAc
# Summary of the method: as §1
# [4] = target: Neu5Ac(a2-6)Gal(b1-4)GlcNAc(b1-2)Man(a1-3)[Gal(b1-4)GlcNAc(b1-2)Man(a1-6)]Man(b1-4)GlcNAc(b1-4)GlcNAc
# Summary of the method: as §1
# [5] = target: Neu5Ac(a2-6)Gal(b1-4)GlcNAc(b1-2)Man(a1-3)[GlcNAc(b1-2)Man(a1-6)]Man(b1-4)GlcNAc(b1-4)GlcNAc
# Summary of the method: as §1
# [6] = target: Neu5Ac(a2-6)Gal(b1-4)GlcNAc(b1-2)Man(a1-3)[GlcNAc(b1-2)Man(b1-4)GlcNAc(b1-2)Man(a1-6)]Man(b1-4)GlcNAc(b1-4)GlcNAc
# Summary of the method: as §1
# [7] = target: Neu5Ac(a2-6)Gal(b1-4)GlcNAc(b1-2)Man(a1-3)[Man(a1-6)]Man(b1-4)GlcNAc(b1-4)GlcNAc
# Summary of the method: as §1
# [8] = target: Neu5Ac(a2-6)Gal(b1-4)GlcNAc(b1-2)Man(a1-3)[Neu5Ac(a2-6)Gal(b1-4)GlcNAc(b1-2)Man(a1-6)]Man(b1-4)GlcNAc(b1-4)GlcNAc
# Summary of the method: as §1
# [9] = target: Neu5Ac(a2-6)Gal(b1-4)GlcNAc(b1-2)Man(a1-6)Man(b1-4)GlcNAc(b1-4)GlcNAc
# Summary of the method: as §1
# [10] = target: Neu5Ac(a2-6)Gal(b1-4)GlcNAc(b1-2)Man(a1-6)[Gal(b1-4)GlcNAc(b1-2)Man(a1-3)]Man(b1-4)GlcNAc(b1-4)GlcNAc
# Summary of the method: as §1
# [11] = target: Neu5Ac(a2-6)Gal(b1-4)GlcNAc(b1-2)Man(a1-6)[GlcNAc(b1-2)Man(a1-3)]Man(b1-4)GlcNAc(b1-4)GlcNAc
# Summary of the method: as §1
# [12] = target: Neu5Ac(a2-6)Gal(b1-4)GlcNAc(b1-2)Man(a1-6)[Man(a1-3)]Man(b1-4)GlcNAc(b1-4)GlcNAc
# Summary of the method: as §1
# [13] = target: Neu5Ac(a2-6)Gal(b1-4)GlcNAc(b1-3)Gal(b1-3)GlcNAc
# Summary of the method: as §1
# [14] = target: Neu5Ac(a2-6)Gal(b1-4)GlcNAc(b1-3)Gal(b1-4)GlcNAc
# Summary of the method: as §1
# [15] = target: Neu5Ac(a2-6)Gal(b1-4)GlcNAc(b1-3)Gal(b1-4)GlcNAc(b1-3)Gal(b1-4)GlcNAc
# Summary of the method: as §1
# [16] = target: Neu5Ac(a2-6)Gal(b1-4)GlcNAc(b1-3)Gal(b1-4)[Fuc(a1-3)]GlcNAc(b1-3)Gal(b1-4)[Fuc(a1-3)]GlcNAc
# Summary of the method: as §1
# [17] = target: Neu5Ac(a2-6)Gal(b1-4)GlcNAc(b1-3)GalNAc
# Summary of the method: as §1
# [18] = target: Neu5Ac(a2-6)Gal(b1-4)GlcNAc6S
# Summary of the method: as §1
# Neu5Ac(a2-6)GalNAc = target: Neu5Ac(a2-6)GalNAc
# Summary of the method: as §1
# [19] = target: Neu5Ac(a2-6)GalNAc(b1-4)GlcNAc
# Summary of the method: as §1
# [20] = target: Neu5Ac(a2-6)GlcNAc(b1-4)GlcNAc
# Summary of the method: as §1
# [21] = target: Neu5Ac(a2-6)GlcNAc(b1-4)GlcNAc(b1-4)GlcNAc
# Summary of the method: as §1
# Neu5Ac(a2-8)Neu5Ac = target: Neu5Ac(a2-8)Neu5Ac
# Summary of the method: as §1
# [22] = target: Neu5Ac(a2-8)Neu5Ac(a2-3)Gal(b1-4)Glc
# Summary of the method: as §1
# [23] = target: Neu5Ac(a2-8)Neu5Ac(a2-3)[Gal(b1-3)GalNAc(b1-4)]Gal(b1-4)Glc
# Summary of the method: as §1
# [24] = target: Neu5Ac(a2-8)Neu5Ac(a2-3)[GalNAc(b1-4)]Gal(b1-4)Glc
# Summary of the method: as §1
# [25] = target: Neu5Ac(a2-8)Neu5Ac(a2-8)Neu5Ac
# Summary of the method: as §1
# [26] = target: Neu5Ac(a2-8)Neu5Ac(a2-8)Neu5Ac(a2-3)Gal(b1-4)Glc
# Summary of the method: as §1
# [27] = target: Neu5Ac(a2-8)Neu5Ac(a2-8)Neu5Ac(a2-3)[GalNAc(b1-4)]Gal(b1-4)Glc
# Summary of the method: as §1
# [28] = target: Neu5Ac(a2-8)Neu5Ac(a2-8)Neu5Ac(a2-8)Neu5Ac(a2-3)[GalNAc(b1-4)]Gal(b1-4)Glc
# Summary of the method: as §1
# [29] = target: Neu5Ac(b2-6)Gal(b1-4)GlcNAc
# Summary of the method: as §1
# Neu5Ac(b2-6)GalNAc = target: Neu5Ac(b2-6)GalNAc
# Summary of the method: as §1
# [30] = target: Neu5Ac9Ac(a2-3)Gal(b1-3)GlcNAc
# Summary of the method: as §1
# [31] = target: Neu5Ac9Ac(a2-3)Gal(b1-4)GlcNAc
# Summary of the method: as §1
# [32] = target: Neu5Ac9Ac(a2-6)Gal(b1-4)GlcNAc
# Summary of the method: as §1
# [33] = target: Neu5Gc(a2-3)Gal(b1-3)GlcNAc
# Summary of the method: as §1
# [34] = target: Neu5Gc(a2-3)Gal(b1-3)[Fuc(a1-4)]GlcNAc
# Summary of the method: as §1
# Neu5Gc(a2-3)Gal(b1-4)Glc = target: Neu5Gc(a2-3)Gal(b1-4)Glc
# Summary of the method: as §1
# [35] = target: Neu5Gc(a2-3)Gal(b1-4)GlcNAc
# Summary of the method: as §1
# [36] = target: Neu5Gc(a2-3)Gal(b1-4)[Fuc(a1-3)]GlcNAc
# Summary of the method: as §1
# [37] = target: Neu5Gc(a2-6)Gal(b1-4)GlcNAc
# Summary of the method: as §1
# Neu5Gc(a2-6)GalNAc = target: Neu5Gc(a2-6)GalNAc
# Summary of the method: as §1
# [38] = target: Neu5Gc(b2-6)Gal(b1-4)GlcNAc
# Summary of the method: as §1
binder,measurement,setting,value
B1,glycan array binding signal (z-score),[1],-0.166
same,glycan array binding signal (z-score),Neu5Ac(a2-6)Gal(b1-4)Glc,-0.297
same,glycan array binding signal (z-score),[2],-0.271
same,glycan array binding signal (z-score),[3],-0.285
same,glycan array binding signal (z-score),[4],0.451
same,glycan array binding signal (z-score),[5],1.07
same,glycan array binding signal (z-score),[6],-0.246
same,glycan array binding signal (z-score),[7],0.085
same,glycan array binding signal (z-score),[8],0.385
same,glycan array binding signal (z-score),[9],-0.283
same,glycan array binding signal (z-score),[10],4.59
same,glycan array binding signal (z-score),[11],5.01
same,glycan array binding signal (z-score),[12],-0.12
same,glycan array binding signal (z-score),[13],-0.147
same,glycan array binding signal (z-score),[14],-0.226
same,glycan array binding signal (z-score),[15],-0.266
same,glycan array binding signal (z-score),[16],-0.162
same,glycan array binding signal (z-score),[17],-0.236
same,glycan array binding signal (z-score),[18],-0.269
same,glycan array binding signal (z-score),Neu5Ac(a2-6)GalNAc,-0.28
same,glycan array binding signal (z-score),[19],-0.255
same,glycan array binding signal (z-score),[20],-0.217
same,glycan array binding signal (z-score),[21],-0.29
same,glycan array binding signal (z-score),Neu5Ac(a2-8)Neu5Ac,-0.25
same,glycan array binding signal (z-score),[22],-0.301
same,glycan array binding signal (z-score),[23],-0.185
same,glycan array binding signal (z-score),[24],-0.236
same,glycan array binding signal (z-score),[25],-0.259
same,glycan array binding signal (z-score),[26],-0.306
same,glycan array binding signal (z-score),[27],-0.26
same,glycan array binding signal (z-score),[28],-0.208
same,glycan array binding signal (z-score),[29],-0.298
same,glycan array binding signal (z-score),Neu5Ac(b2-6)GalNAc,-0.189
same,glycan array binding signal (z-score),[30],-0.237
same,glycan array binding signal (z-score),[31],-0.3
same,glycan array binding signal (z-score),[32],-0.244
same,glycan array binding signal (z-score),[33],-0.271
same,glycan array binding signal (z-score),[34],-0.28
same,glycan array binding signal (z-score),Neu5Gc(a2-3)Gal(b1-4)Glc,-0.271
same,glycan array binding signal (z-score),[35],-0.197
same,glycan array binding signal (z-score),[36],-0.247
same,glycan array binding signal (z-score),[37],-0.255
same,glycan array binding signal (z-score),Neu5Gc(a2-6)GalNAc,-0.188
same,glycan array binding signal (z-score),[38],-0.28
